# Source: paper PMC9911399, “Two distinct binding modes provide the RNA-binding protein RbFox with extraordinary sequence specificity”
# Positions count from the first letter of the chain named. The list shows a part of the results.
# T1: RBFOX1 RRM RbFoxmut (Fox-RRM*) (Homo sapiens, UniProt Q9NWB1 109-208, R118D;E147R;N151S;E152T)
# T1 sequence: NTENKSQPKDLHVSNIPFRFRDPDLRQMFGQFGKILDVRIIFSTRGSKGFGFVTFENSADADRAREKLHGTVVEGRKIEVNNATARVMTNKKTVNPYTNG
# B1: AUCAAUC (DNA:RNA)
# RNA: GGGAGACCGGAAUUCAGAUUGUCCAUCAAUCUUAAAUCCCGUCGUAGCCACCA
# DNA 1: CAATCTGAATTCCGGTCTCCC
# DNA 2: TGGTGGCTACGACGGGATT
# B2: UAUCAAC (DNA:RNA)
# RNA: B1 RNA with A25U, U26A, C27U, A28C, U30A
# DNA 1: CAATCTGAATTCCGGTCTCCC
# DNA 2: TGGTGGCTACGACGGGATT
# B3: ACACAAU (DNA:RNA)
# RNA: B1 RNA with U26C, C27A, A28C, U30A, C31U
# DNA 1: CAATCTGAATTCCGGTCTCCC
# DNA 2: TGGTGGCTACGACGGGATT
# B4: UUAUUGC (DNA:RNA)
# RNA: B1 RNA with A25U, C27A, A28U, A29U, U30G
# DNA 1: CAATCTGAATTCCGGTCTCCC
# DNA 2: TGGTGGCTACGACGGGATT
# B5: UUACACC (DNA:RNA)
# RNA: B1 RNA with A25U, C27A, A28C, U30C
# DNA 1: CAATCTGAATTCCGGTCTCCC
# DNA 2: TGGTGGCTACGACGGGATT
# B6: UAAUCAU (DNA:RNA)
# RNA: GGGAGACCGGAAUUCAGAUUGUCCUAAUCAUUUAAAUCCCGUCGUAGCCACCA
# DNA 1: CAATCTGAATTCCGGTCTCCC
# DNA 2: TGGTGGCTACGACGGGATT
# B7: AGUGAGC (DNA:RNA)
# RNA: B1 RNA with U26G, C27U, A28G, U30G
# DNA 1: CAATCTGAATTCCGGTCTCCC
# DNA 2: TGGTGGCTACGACGGGATT
# B8: AUCAAGC (DNA:RNA)
# RNA: B1 RNA with U30G
# DNA 1: CAATCTGAATTCCGGTCTCCC
# DNA 2: TGGTGGCTACGACGGGATT
# B9: AGAGGCU (DNA:RNA)
# RNA: B6 RNA with U25A, A26G, U28G, C29G, A30C
# DNA 1: CAATCTGAATTCCGGTCTCCC
# DNA 2: TGGTGGCTACGACGGGATT
# B10: CAUGACG (DNA:RNA)
# RNA: B1 RNA with A25C, U26A, C27U, A28G, U30C, C31G
# DNA 1: CAATCTGAATTCCGGTCTCCC
# DNA 2: TGGTGGCTACGACGGGATT
# B11: CCAUGUU (DNA:RNA)
# RNA: B6 RNA with U25C, A26C, C29G, A30U
# DNA 1: CAATCTGAATTCCGGTCTCCC
# DNA 2: TGGTGGCTACGACGGGATT
# B12: AGCUCCU (DNA:RNA)
# RNA: B6 RNA with U25A, A26G, A27C, A30C
# DNA 1: CAATCTGAATTCCGGTCTCCC
# DNA 2: TGGTGGCTACGACGGGATT
# B13: CUAUCCA (DNA:RNA)
# RNA: B6 RNA with U25C, A26U, A30C, U31A
# DNA 1: CAATCTGAATTCCGGTCTCCC
# DNA 2: TGGTGGCTACGACGGGATT
# B14: AGUUAAC (DNA:RNA)
# RNA: B1 RNA with U26G, C27U, A28U, U30A
# DNA 1: CAATCTGAATTCCGGTCTCCC
# DNA 2: TGGTGGCTACGACGGGATT
# B15: GGGAUCU (DNA:RNA)
# RNA: B1 RNA with A25G, U26G, C27G, A29U, U30C, C31U
# DNA 1: CAATCTGAATTCCGGTCTCCC
# DNA 2: TGGTGGCTACGACGGGATT
# B16: UCCAUAU (DNA:RNA)
# RNA: B6 RNA with A26C, A27C, U28A, C29U
# DNA 1: CAATCTGAATTCCGGTCTCCC
# DNA 2: TGGTGGCTACGACGGGATT
# B17: GUUUAUA (DNA:RNA)
# RNA: B1 RNA with A25G, C27U, A28U, C31A
# DNA 1: CAATCTGAATTCCGGTCTCCC
# DNA 2: TGGTGGCTACGACGGGATT
# B18: UUCCUUU (DNA:RNA)
# RNA: B1 RNA with A25U, A28C, A29U, C31U
# DNA 1: CAATCTGAATTCCGGTCTCCC
# DNA 2: TGGTGGCTACGACGGGATT
# B19: UAACUUC (DNA:RNA)
# RNA: B6 RNA with U28C, C29U, A30U, U31C
# DNA 1: CAATCTGAATTCCGGTCTCCC
# DNA 2: TGGTGGCTACGACGGGATT
# B20: GUGGACG (DNA:RNA)
# RNA: B1 RNA with A25G, C27G, A28G, U30C, C31G
# DNA 1: CAATCTGAATTCCGGTCTCCC
# DNA 2: TGGTGGCTACGACGGGATT
# Target: T1, RBFOX1 RRM RbFoxmut (Fox-RRM*)
# Test: EMSA; HiTS-Eq, 1 nM pool, 10 min; buffer printed only for the single-RNA assays: 10 mM Tris pH 7.5, 150 mM NaCl, 3.4 mM EDTA, 0.001% NP-40, 30 C
# Conditions: tags: His6 N-terminal (pET28a); label: 5' 32P
# Procedure, shortened: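 Purified RbFox RRM, wild type or mutant, was incubated for 10 min in 50 µL with 1 nM of a 5′-radiolabelled RNA pool carrying 7 randomized nucleotides, whose flanks were annealed to DNA oligonucleotides, over a series of increasing protein concentrations. Unbound RNA was resolved on 8% native PAGE, cut out, reverse-transcribed, barcoded by PCR and sequenced on an Illumina HiSeq 2500. Relative association constants were derived from changes in read counts for each RNA species versus the control reaction and normalised to the cognate motif.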
row,Binder,binding signal
1,B1,0.0606 KA relative to UGCAUGU
2,B2,0.0614 KA relative to UGCAUGU
3,B3,0.064 KA relative to UGCAUGU
4,B4,0.128 KA relative to UGCAUGU
5,B5,0.0797 KA relative to UGCAUGU
6,B6,0.0651 KA relative to UGCAUGU
7,B7,0.131 KA relative to UGCAUGU
8,B8,0.0904 KA relative to UGCAUGU
9,B9,0.0973 KA relative to UGCAUGU
10,B10,0.0944 KA relative to UGCAUGU
11,B11,0.104 KA relative to UGCAUGU
12,B12,0.0484 KA relative to UGCAUGU
13,B13,0.119 KA relative to UGCAUGU
14,B14,0.0835 KA relative to UGCAUGU
15,B15,0.17 KA relative to UGCAUGU
16,B16,0.118 KA relative to UGCAUGU
17,B17,0.13 KA relative to UGCAUGU
18,B18,0.079 KA relative to UGCAUGU
19,B19,0.0597 KA relative to UGCAUGU
20,B20,0.109 KA relative to UGCAUGU
